# Substitutions are numbered along the chain they refer to.
# B1: BCMA-01 VL2VH2 (Fc fusion)
# scFv: EVQLVESGGGLVQPGGSLRLSCAASGFTFSDFYMYWVRQAPEKRLEWVAYITNGGENTYFPDTVKGRFTISRDNAKNSLYLQMNSLRAEDTAVYYCARQNPFYYYDSNYDYAMDFWGQGTTVTVSSGGGGSGGGGSGGGGSDVVMTQSPLSLPVTLGQPASISCKSSQSLLYSNGKTYLSWLFQRPGQSPKRLIYLVSELDSGVPDRFSGSGSGTDFTLKISRVEAEDVGVYYCVQGTHFPHTFGGGTKVEIK[human IgG1 Fc with C220S (EU numbers) not spelt out]
# notes: humanized scFv-Fc
# B2: BCMA-01 VL1VH1 (Fc fusion)
# scFv: B1 scFv with E42G, R44G, K191R
# notes: humanized scFv-Fc
# B3: BCMA-01 VL1aVH1 (Fc fusion)
# scFv: B1 scFv with E42G, R44G, G175A, K191R
# notes: humanized scFv-Fc
# B4: BCMA-01 VL2VH1 (Fc fusion)
# scFv: B1 scFv with E42G, R44G
# notes: humanized scFv-Fc
# B5: BCMA-01 VL2VH2a (Fc fusion)
# scFv: B1 scFv with G54A
# notes: humanized scFv-Fc
# B6: BCMA-01 VL2VH3 (Fc fusion)
# scFv: B1 scFv with Q3K
# notes: humanized scFv-Fc
# B7: BCMA-01 VL1VH2 (Fc fusion)
# scFv: B1 scFv with K191R
# notes: humanized scFv-Fc
# B8: BCMA-mAb01 (Fc fusion)
# scFv: EVKLVESGGGLVQPGGSLKLSCAASGFTFSDFYMYWVRQTPEKRLEWVAYITNGGENTYFPDTVKGRFTISRDNAKNTLYLQMSRLKSEDTAMYYCARQNPFYYYDSNYDYAMDFWGQGTSVTVSSGGGGSGGGGSGGGGSDVVMTQTPLTLSVTIGQPASISCKSSQSLLYSNGKTYLSWLFQRPGQSPKRLIYLVSELDSGVPDRFTGSGSGTDFTLKISRVEAEDLGIYYCVQGTHFPHTFGGGTKLEIK[human IgG1 Fc with C220S (EU numbers) not spelt out]
# notes: human-mouse chimeric scFv-Fc
# B9: BCMA-03 VL2VH3a (Fc fusion)
# scFv: EVPLVQSGSELKKPGASVKVSCKASGYTFTNYAMTWVRQAPGQGLEWMGWIDTYSGVPTYADSFKGRFVFSLETSASTAYLQISSLKAEDTAVYYCARVGVYGGYDTLDSWGQGTTVTVSSGGGGSGGGGSGGGGSDIQMTQSPSSLSASVGDRVTITCSASQGISNHLNWYQQKPDKTVKLLIYYTSSLHSGVPSRFSGSGSGTDFTLTISSLQPEDFATYYCQQYNNLPWTFGGGTKVEIK[human IgG1 Fc with C220S (EU numbers) not spelt out]
# notes: humanized scFv-Fc
# B10: BCMA-03 VL1VH3a (Fc fusion)
# scFv: B9 scFv with D177G, T179A
# notes: humanized scFv-Fc
# B11: BCMA-03 VL3VH3a (Fc fusion)
# scFv: B9 scFv with K178G
# notes: humanized scFv-Fc
# B12: BCMA-mAb03 (Fc fusion)
# scFv: QIPLVQSGPELKKPGETVKISCKASGYTFTNYAMTWVKQAPGKGLKWMGWIDTYSGVPTYADDFKGRFAFSLETSATTAYLQINNLKNEDTATYFCARVGVYGGYDTLDSWGQGTSVTVSSGGGGSGGGGSGGGGSDIQMTQTTSSLSASLGDRVTISCSASQGISNHLNWYQQKPDGTVKLLIYYTSSLHSGVPSRFSGSGSGTDYSLTISNLEPEDFATYYCQQYNNLPWTFGGGTKLEIK[human IgG1 Fc with C220S (EU numbers) not spelt out]
# notes: human-mouse chimeric scFv-Fc
# B13: BCMA-04 VL1VH3a (Fc fusion)
# scFv: EVQLVQSGAEVKKPGSSVKVSCKASGYSFTSYGISWVRQAPGQGLEWMGEIYPRDQITYYNEKFKGRVTLTADKSTSTAYMELSSLRSEDTAVYYCARHDYYYVNSVSAMDYWGQGTTVTVSSGGGGSGGGGSGGGGSDIVMTQSPDSLAVSLGERATINCKSSQSLLYSSNQKNYLAWYQQKPGQSPKLLIYWASTRYSGVPDRFSGSGSGTDFTLTISSLQAEDVAVYYCQQYYIYPWTFGGGTKVEIK[human IgG1 Fc with C220S (EU numbers) not spelt out]
# Target: T1, human BCMA-His protein (human, UniProt Q02223 1-54)
# T1 construct: Analyte in the SPR assay; also called human BCMA protein; BCMA antigen protein; not shown: His tag
# T1 sequence (looked up): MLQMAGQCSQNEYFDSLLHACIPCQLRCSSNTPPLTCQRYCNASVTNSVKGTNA
# Assay: SPR, antibody captured on Protein A chip, BCMA-His as analyte
# Procedure: A sample buffer and a running buffer were HBS-EP+ (10 mM HEPES, 150 mM NaCl, 3 mM EDTA and 0.05% surfactant P20) (GE Healthcare; BR-1006-69). The flow-through cell was set to 25° C. The sample block was set to 16° C. Both were pretreated with the running buffer. In each cycle, an antibody to be tested was first captured with a Protein A chip, and then a single concentration of BCMA antigen protein was injected. The binding and dissociation processes of the antibody and the antigen protein were recorded, and finally Glycine pH 1.5 (GE Helthcare; BR-1003-54) was used to complete chip regeneration. Binding was measured by injecting different concentrations of BCMA-His in solution for 240 s with a flow rate of 30 μL/min. The concentration started from 200 nM (see the detailed results for the actual concentration in the test) and was diluted at 1:1, making a total of 5 concentrations. The dissociation phase was monitored for up to 600 s and was triggered by switching from sample solution to running buffer. The surface was regenerated by washing with a 10 mM glycine solution (pH 1.5) for 30 s at a flow rate of 30 μL/min. Bulk refractive index difference was corrected by subtracting the response obtained from the goat anti-human Fc surface. Blank injection was also subtracted (=double reference). For calculation of apparent KD and other kinetic parameters, Langmuir 1:1 model was used. The binding rate (Kₐ), dissociation rate (Kdis) and binding affinity (KD) of the chimeric antibodies to human BCMA protein are shown in the table, wherein REGN5459-hlgG1 and HPN217-hHcAb antibodies were used as controls.
# The specific method was the same as that in Example 6. The binding rate (Kₐ), dissociation rate (Kdis) and binding affinity (KD) of the humanized antibodies to human BCMA protein are shown Table 38, wherein REGN5459-hlgG1 antibody is used as a control.
Binder,Kd [nM],koff [s⁻¹],kon [M⁻¹ s⁻¹]
B1,0.341,0.000638,1.87e+06
B2,0.384,0.00067,1.74e+06
B3,0.344,0.000621,1.81e+06
B4,0.37,0.000655,1.77e+06
B5,0.455,0.000756,1.66e+06
B6,0.321,0.000605,1.88e+06
B7,0.32,0.000614,1.92e+06
B8,0.511,0.000814,1.59e+06
B9,0.213,0.000262,1.23e+06
B10,0.22,0.000287,1.3e+06
B11,0.236,0.000261,1.11e+06
B12,0.114,0.000145,1.27e+06
B13,0.115,0.000114,987000

# Target: T2, BCMA expressed endogenously on U266 and H929 cells (UniProt Q02223 1-184, limits assumed)
# T2 construct: whole, on cells; The cell line (U266 or H929) is named under assay in each row; also called B cell maturation antigen; CD269
# T2 sequence (looked up): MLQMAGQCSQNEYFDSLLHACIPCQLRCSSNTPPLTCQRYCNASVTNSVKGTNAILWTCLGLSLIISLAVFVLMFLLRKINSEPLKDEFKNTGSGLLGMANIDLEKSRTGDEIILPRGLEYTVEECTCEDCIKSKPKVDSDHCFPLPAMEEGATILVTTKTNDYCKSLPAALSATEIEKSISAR
# Assay: FACS on U266 cells
# Outline: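 Cells at 2×10⁶/ml in PBS + 2% FCS incubated with test antibody 1 h at 4° C, washed, then analysed by flow cytometry. MFI derived per sample; EC50 fitted from binding curves.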
Binder,EC50 [nM],Maximum mean fluorescence intensity
B1,7.84,3990
B2,9.84,3860
B3,12.7,3930
B4,8.69,4030
B5,20.1,3650
B6,10.5,4100
B7,12.1,3840
B8,7.48,3930
B9,25.1,3530
B10,16.2,3500
B11,18.8,3450
B12,19,3630
B13,37.9,3400

# Target: T2, BCMA expressed endogenously on U266 and …
# Assay: FACS on H929 cells
Binder,EC50 [nM],Maximum mean fluorescence intensity
B1,5.22,9980
B2,5.58,8530
B3,8.7,9370
B4,4.96,9560
B5,11.8,9720
B6,6.13,10800
B7,11,10400
B8,4.12,10500
B9,14.1,9220
B10,12.1,10300
B11,12.2,10100
B12,7.56,7590
B13,33.2,7260

# From US20250297021A1 (SHANDONG SIMCERE BIOPHARMACEUTICAL CO NO 1, published 2025)
